Article PMC6919601, “Identification of Plasmodium dipeptidyl aminopeptidase allosteric inhibitors by high throughput screening” (PLoS ONE, 2019)
Hit rate of the full screen: of about 110,000 compounds, about 230 (0.21%) showed an effect of 50% or more. The list shows a part of the results.

target: DPAP1 (Plasmodium falciparum, UniProt Q8IIJ9); assay: primary screen, percent inhibition; read by cleavage of a fluorogenic dipeptide substrate; higher = more effect of the substance; parameters: species or system P. falciparum D10 trophozoite lysates; single well
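Note: 30 min substrate incubation versus DMSO and 10 µM JCP410 controls.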

DPAP1, sequence (Q8IIJ9 whole entry, looked up): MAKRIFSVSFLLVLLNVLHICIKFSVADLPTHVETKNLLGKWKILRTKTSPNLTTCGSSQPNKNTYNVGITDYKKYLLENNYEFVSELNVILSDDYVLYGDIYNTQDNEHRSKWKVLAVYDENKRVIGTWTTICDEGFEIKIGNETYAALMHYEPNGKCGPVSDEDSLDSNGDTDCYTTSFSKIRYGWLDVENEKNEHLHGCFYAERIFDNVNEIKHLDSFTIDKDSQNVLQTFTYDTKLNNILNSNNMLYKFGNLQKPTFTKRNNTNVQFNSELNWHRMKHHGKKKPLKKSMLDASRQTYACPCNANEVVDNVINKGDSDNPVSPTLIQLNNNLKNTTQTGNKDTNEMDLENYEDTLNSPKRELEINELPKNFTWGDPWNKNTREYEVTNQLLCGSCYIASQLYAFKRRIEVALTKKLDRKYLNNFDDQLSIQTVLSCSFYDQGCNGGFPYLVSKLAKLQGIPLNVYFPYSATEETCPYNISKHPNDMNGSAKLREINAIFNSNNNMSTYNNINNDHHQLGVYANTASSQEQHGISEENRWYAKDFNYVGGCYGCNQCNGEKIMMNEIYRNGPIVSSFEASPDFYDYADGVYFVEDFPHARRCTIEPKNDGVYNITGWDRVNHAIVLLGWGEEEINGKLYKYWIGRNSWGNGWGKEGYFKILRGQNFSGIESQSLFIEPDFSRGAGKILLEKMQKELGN

Going from `CC1=C(C(=O)OC2CCCC2)C(c2ccc(Cl)cc2)NC(=O)N1` (stereo not shown) to `CC1=C(C(=O)Nc2cccc(F)c2)C(c2ccc(Cl)c(Cl)c2)NC(S)=N1` (stereo not shown), the “% Inhibition @ 10 uM” value rises from 1.57% to 5.16%.

First: O=C(NC1CON=C1Br)OCC1c2ccccc2-c2ccccc21 (stereo not shown)
Second: CC1CCN(C(=O)C2c3ccccc3Oc3ccccc32)CC1
The “% Inhibition @ 10 uM” value of the first is lower: -0.48% for the first, 4.49% for the second.

Compared with `O=C1c2ccc3c4c(ccc(c24)C(=O)N1Cc1cccnc1)C(=O)N(Cc1cccnc1)C3=O`, `CC(c1ccccc1)C1CC(=O)N(Cc2ccccc2)C1=O` (stereo not shown) is higher in “% Inhibition @ 10 uM” value: -0.413% for the first, 0.812% for the second.

First: COc1ccc(N2C(N)=C(C#N)C(c3ccc(F)cc3)C3=C2CC(C)(C)CC3=O)cc1 (stereo not shown)
Second: N#CC1=C(SCC(=O)Nc2ccc(Br)cc2)NC(=O)CC1c1ccc(F)cc1 (stereo not shown)
The “% Inhibition @ 10 uM” value of the first is lower: 2.45% for the first, 3.46% for the second.

Compared with `O=C1CNC(=O)/C1=C/c1ccc(O)cc1`, `Cc1ccc(/C=C2\SC(N3CCN(C)CC3)=NC2=O)cc1` is higher in “% Inhibition @ 10 uM” value: 1.7% for the first, 4% for the second.

Compared with `Cc1ccc(/C=C(\NC(=O)c2ccccc2)C(=O)NCCC2=CCCCC2)o1`, `CCOC(=O)c1c(NC(=O)CC(NC(=O)c2ccccc2)c2ccccc2)sc2c1CCCC2` (stereo not shown) is lower in “% Inhibition @ 10 uM” value: 1.02% for the first, -4.7% for the second.

Going from `C=CCOc1ccc(C2C(C(=O)c3ccc(OC)cc3)=C(O)C(=O)N2CCN(C)C)cc1` (stereo not shown) to `CCOc1ccc(C(=O)Nc2cc(C)ccc2C)cc1`, the “% Inhibition @ 10 uM” value falls from 0.487% to -9.68%.

Going from `COc1ccc(CN2CCC(N3CCCCC3)CC2)cc1Br` to `COc1cccc(-c2nn(C)c3sc(C(=O)N4CCC(N5CCCCC5)CC4)cc23)c1`, the “% Inhibition @ 10 uM” value falls from 4.75% to -0.499%.

First: CCn1cc(C2=NOC(C(=O)NCC34CC5CC(CC(C5)C3)C4)C2)c(C)n1 (stereo not shown)
Second: CCOCCCNC(=O)Cn1cc2c(n1)CCCC2
The “% Inhibition @ 10 uM” value of the first is lower: -8.58% for the first, 4.95% for the second.

First: COc1ccccc1CNC(=O)c1nnc(-c2ccc3c(c2)OCO3)o1
Second: COC(=O)C1=CN(Cc2ccccc2)C=C(C(=O)OC)C1c1ccc2c(c1)OCO2
The “% Inhibition @ 10 uM” value of the first is lower: -11.1% for the first, -1.1% for the second.

Compared with `CCOC(=O)c1sc(N2N=C(C)/C(=C\c3ccc(CC)s3)C2=O)nc1C`, `CCOC(=O)C1=C(C)N=c2s/c(=C/c3c[nH]c4ccccc34)c(=O)n2C1c1cccs1` (stereo not shown) is lower in “% Inhibition @ 10 uM” value: -0.85% for the first, -1.4% for the second.

First: CCOCCCNC(=O)CSc1c2c(nc3ccc(Cl)cc13)CCCC2
Second: Cc1ccc(CCNC(=O)CC/N=c2/c(N3CCCC3)c(O)c2=O)cc1
The “% Inhibition @ 10 uM” value of the first is lower: -8.9% for the first, -7.29% for the second.

First: CCCCSc1nc(O)c2cnn(-c3ccc(F)cc3)c2n1
Second: CCN(CCO)c1ncnc2onc(-c3ccc(F)cc3)c12
The “% Inhibition @ 10 uM” value of the first is higher: -0.363% for the first, -0.887% for the second.

Compared with `Cc1cccc(CNC(=O)CCCn2nc(C)c3c(C)n(-c4ccccc4)nc3c2=O)c1`, `C=Cc1ccc(Cn2c(C(=O)O)c(CNCCc3ccccc3Cl)c3ccc(C)cc32)cc1` is higher in “% Inhibition @ 10 uM” value: -1.05% for the first, -0.177% for the second.

First: CC1=C(C(=O)Nc2cccc(C)n2)C(c2ccc(Br)cc2)C2=C(O)CCCC2=N1 (stereo not shown)
Second: Cc1ccc(C2CC(=O)NC(SCC(=O)Nc3ccc(Cl)c(Cl)c3)=C2C#N)cc1 (stereo not shown)
The “% Inhibition @ 10 uM” value of the first is lower: -4.64% for the first, -2.16% for the second.

Compared with `COc1ccc(C2=N/C(=C\c3cc(Br)ccc3OC)C(=O)O2)c(Cl)c1`, `COc1ccc(-c2noc(NCc3cccc(Cl)c3)n2)cc1OC` is higher in “% Inhibition @ 10 uM” value: 4.22% for the first, 12% for the second.

First: COc1ccc(C2N(C(=O)CSc3ccccn3)CCN2S(=O)(=O)c2ccc(C)cc2)cc1 (stereo not shown)
Second: COc1ccc(C(=O)Nc2ccc(S(=O)(=O)N3CCCCC3)cc2)cc1Br
The “% Inhibition @ 10 uM” value of the first is higher: 7.99% for the first, 7.67% for the second.

First: Cc1cccnc1NC(=O)c1cc2ccc3cccnc3c2[nH]1
Second: O=C(Nc1cccnc1Cl)c1cc(-c2ccccc2O)on1
The “% Inhibition @ 10 uM” value of the first is higher: 3.11% for the first, -10% for the second.

Going from `Cc1ccc(NC(=O)c2ccc(C(=O)Nc3ccc(C)cc3[N+](=O)[O-])cc2)c([N+](=O)[O-])c1` to `Cc1cc([N+](=O)[O-])ccc1NC(=O)COc1ccc(Cl)cc1Cl`, the “% Inhibition @ 10 uM” value falls from 0.827% to -9.6%.

Compared with `COc1cccc(NC(=O)c2cc(OC)cc(OC)c2)c1`, `COc1cccc(NC(=O)CCCC(=O)O)c1` is lower in “% Inhibition @ 10 uM” value: -3.26% for the first, -4.35% for the second.

Going from `CCc1ccccc1NC(=O)CN(c1cc(OC)ccc1OC)S(C)(=O)=O` to `COc1ccc(Cl)cc1N(CC(=O)NC(C)(C)C)S(C)(=O)=O`, the “% Inhibition @ 10 uM” value rises from -3.78% to 3.66%.

First: COc1c(C(=O)N[C@@H](CC(C)C)C(=O)NCC#N)csc1-c1ccccc1
Second: N#CCNC(=O)C(CC(Cl)Cl)NC(=O)OCc1ccccc1 (stereo not shown)
The “% Inhibition @ 10 uM” value of the first is higher: 1.71% for the first, -0.207% for the second.

Going from `CC1CCC(NC(=O)C2CCN(C(=O)c3cc4sccc4n3C)CC2)CC1` (stereo not shown) to `Cc1ccc(Cl)cc1N1CCN(C(=O)C2CCN(S(C)(=O)=O)CC2)CC1`, the “% Inhibition @ 10 uM” value falls from -1.58% to -2.6%.

Compared with `Clc1ccc(-c2csc(Nc3ccc(Oc4ccccc4)cc3)n2)cc1`, `COc1ccc(Nc2ccccc2C(=O)O)cc1` is higher in “% Inhibition @ 10 uM” value: -4.03% for the first, 5.01% for the second.

Going from `O=C(O)CCn1ccnc1` to `Cc1nn(C(=O)CCC(=O)NCCC(C)C)c2ccccc12`, the “% Inhibition @ 10 uM” value rises from -2.91% to 0.596%.

Compared with `CCCN(CCO)Cc1ccc(F)c(F)c1`, `CCOC(=O)CNc1ccc(Cl)cc1C` is lower in “% Inhibition @ 10 uM” value: 1.62% for the first, -1.22% for the second.

Going from `CCOc1ccc(CNS(=O)(=O)c2cc(-c3cc(C)no3)ccc2OC)cc1` to `Cc1cc(-c2ccc(S(=O)(=O)NC3CCCCCC3)cc2)on1`, the “% Inhibition @ 10 uM” value rises from -7.87% to -3.1%.

Going from `CCC(Sc1nncn2c1cc1sccc12)C(=O)N1CCOCC1` (stereo not shown) to `O=C1S/C(=C\c2ccc(N3CCOCC3)o2)C(=O)N1Cc1ccc(F)cc1`, the “% Inhibition @ 10 uM” value rises from 5.18% to 6.58%.

Going from `CC1=NN(c2nc3ccccc3[nH]2)C(=O)C1Cc1ccccc1` (stereo not shown) to `Cc1cc(-c2noc(CCc3ccccc3)n2)c2ccccc2n1`, the “% Inhibition @ 10 uM” value falls from 0.221% to -4.04%.

Going from `N#CC1=C(N)OC2=C(C(=O)CCC2)C1c1cccc(OCc2ccccc2)c1` (stereo not shown) to `O=C(OCc1ccccn1)c1cccc(COc2ccccc2Cl)c1`, the “% Inhibition @ 10 uM” value falls from -1.98% to -3.13%.

Compared with `Cc1ccc2c(c1)-c1c(cnn1CC(=O)NCCCN1CCCC1=O)CO2`, `COCCNC(=O)CN1C(=O)CSc2ncccc21` is higher in “% Inhibition @ 10 uM” value: -6.42% for the first, 1.03% for the second.

First: COCCn1cc(C(=O)N2CCCCCC2)c2c3ccccc3n(C)c2c1=O
Second: O=C(N/C(=C\C=C/c1ccccc1)C(=O)N1CCCCC1)c1ccc(Br)o1
The “% Inhibition @ 10 uM” value of the first is lower: -7.85% for the first, 1.13% for the second.

Compared with `CC(=O)NC1=NN(C(C)=O)C(c2ccc(N(C)C)cc2)S1` (stereo not shown), `CCOC(=O)Nc1cccnc1Sc1ccc(Cl)cc1` is lower in “% Inhibition @ 10 uM” value: 1.63% for the first, 1.01% for the second.

Going from `Cc1[nH]c2ccccc2c1CCNC(=S)NCCc1ccccc1` to `CC(CCc1ccccc1)NC(=O)c1ccncc1` (stereo not shown), the “% Inhibition @ 10 uM” value falls from 4.41% to 3.21%.

Compared with `O=C(NCCNC(=O)c1nc(-c2ccc(F)cc2)no1)c1ccc(Br)o1`, `COCCNC(=O)C1CCCN(c2nn3cc(-c4ccc(F)cc4)nc3s2)C1` (stereo not shown) is higher in “% Inhibition @ 10 uM” value: -5.17% for the first, 4.43% for the second.

Compared with `C=C(C)CN(CC)Cc1coc2ccc(C)cc2c1=O`, `CCN(CC)C(=O)CN(Cc1ccccc1)S(C)(=O)=O` is lower in “% Inhibition @ 10 uM” value: -1.64% for the first, -4.91% for the second.

Compared with `O=S(=O)(c1ccc(-c2ccc(O)nn2)o1)N1CCN(C(c2ccccc2)c2ccccc2)CC1`, `CCOC(=O)c1c(S(=O)(=O)N2CCN(C(c3ccccc3)c3ccccc3)CC2)c(C)n(C)c1C` is higher in “% Inhibition @ 10 uM” value: -2.74% for the first, 5.41% for the second.

First: COC(F)(C(=O)Nc1ccccc1C(C)C)C(F)(F)F (stereo not shown)
Second: COc1ccc(NC(=O)c2ccccc2F)cc1Cl
The “% Inhibition @ 10 uM” value of the first is lower: -3.68% for the first, -2.18% for the second.

Going from `CC(=O)N1CCN(c2ccc(NCc3ccc(Br)cc3)cc2)CC1` to `CCOC(=O)N1CCN(c2c(NCCOC)c(=O)c2=O)CC1`, the “% Inhibition @ 10 uM” value falls from 11.6% to -8.92%.

Compared with `CCc1nc(C)cn1S(=O)(=O)c1ccc(Br)c(OC)c1`, `COc1ccc(Br)cc1C1CC(=O)Nc2c1c(=O)nc(SCc1ccccc1)n2C` (stereo not shown) is higher in “% Inhibition @ 10 uM” value: 3.91% for the first, 27.5% for the second.

First: CC(C)NC(C)C(=O)c1ccc2c(c1)CCCC2 (stereo not shown)
Second: CC(C)OCC(O)CSCc1ccc(Cl)cc1 (stereo not shown)
The “% Inhibition @ 10 uM” value of the first is lower: -2% for the first, 4.84% for the second.

Going from `CC1=NN2C(=N)/C(=C\c3cccn3-c3ccc4ccccc4c3)C(=O)N=C2S1` to `CC1(C)CC2c3cccc(C(=O)O)c3C(=O)N2c2c1ccc1ccccc21` (stereo not shown), the “% Inhibition @ 10 uM” value falls from -3.35% to -8.36%.

Going from `CC(=O)c1cc2c(=O)n3c(nc2nc1O)CCC3` to `CCn1nc(C)c2c(C(F)(F)C(F)(F)F)cc(=O)n(CC(=O)N3CCCCC3)c21`, the “% Inhibition @ 10 uM” value rises from 2.23% to 9.97%.

Going from `CCOc1ccc(-n2cc(-c3ccccc3)c3c(N4CC(C)OC(C)C4)ncnc32)cc1` (stereo not shown) to `COc1ccccc1-c1nn2c(-c3ccccc3)nnc2s1`, the “% Inhibition @ 10 uM” value falls from 10.9% to -5.38%.

First: CC1CCCN(C(=O)CN(C)S(=O)(=O)c2cccc3nsnc23)C1 (stereo not shown)
Second: CN(Cc1ccccc1)c1nnc(NC(=O)NC2CCCC2)s1
The “% Inhibition @ 10 uM” value of the first is higher: 3.43% for the first, 0.623% for the second.

Compared with `O=C(NC1(C(F)(F)F)C(=O)Nc2c1c(=O)[nH]c(=O)n2-c1ccccc1)c1ccc(Cl)cc1Cl` (stereo not shown), `FC(F)(F)c1ccccc1CN1CCc2c([nH]c3ccccc23)C1` is higher in “% Inhibition @ 10 uM” value: -5.23% for the first, 7.59% for the second.

First: O=C(Nc1ccccc1C#Cc1ccccc1)c1ccco1
Second: CCOP(=O)(OCC)C(Nc1ccccc1)c1ccccc1 (stereo not shown)
The “% Inhibition @ 10 uM” value of the first is lower: -4.75% for the first, 5.77% for the second.

First: CCc1nnc(NC(=O)c2cc3c(Cl)nc4ccccc4c3s2)s1
Second: O=C(CCN1C(=O)C2C3C=CC(C3)C2C1=O)NCCc1ccccc1Cl (stereo not shown)
The “% Inhibition @ 10 uM” value of the first is lower: -3.99% for the first, 3.61% for the second.

Going from `COc1ccccc1CN1CCN(Cc2ccc(OC)c(OC)c2)CC1` to `COc1ccccc1C1(O)CC2CCC(C1)N2c1nccc(C)n1` (stereo not shown), the “% Inhibition @ 10 uM” value falls from -0.622% to -6.81%.

Compared with `O=S(=O)(NCC1CCN(S(=O)(=O)c2ccc(Cl)cc2)CC1)c1ccc(Cl)cc1`, `O=C(O)CS(=O)(=O)CC(=O)O` is lower in “% Inhibition @ 10 uM” value: 3.67% for the first, 1.32% for the second.
